Here are results for 26 compounds from patent US9873709B2 (priority 2013, dated 2018).

As a reminder, the Ki is the dissociation constant of the complex between target and ligand, obtained from inhibition or displacement.

The structures appear in SMILES notation.

This assay concerns the target isolated recombinant JAK1 kinase domain (Homo sapiens (Human), UniProt P23458). To be noted: read-out: JAK1 Ki; isolated recombinant JAK1 kinase domain, 25 μM ATP.
On to `O=C(CCC(F)(F)F)N1CC=C(c2cccn3nc(Nc4ccc(C(=O)N5CCN(Cc6cccnc6)CC5)cc4)nc23)CC1` [Example 2-394, 4,4,4-trifluoro-1-[4-[2-[4-[4-(3-pyridylmethyl)piperazine-1-carbonyl]anilino]-[1,2,4]triazolo[1,5-a]pyridin-8-yl]-3,6-dihydro-2H-pyridin-1-yl]butan-1-one], for which the Ki amounted to 0.63 nM.
Turning to `O=C(CCC(F)(F)F)N1CC=C(c2cccn3nc(Nc4ccc(C(=O)N5CCN(c6cccnc6)CC5)cc4)nc23)CC1` [Example 2-395, 4,4,4-trifluoro-1-[4-[2-[4-[4-(3-pyridyl)piperazine-1-carbonyl]anilino]-[1,2,4]triazolo[1,5-a]pyridin-8-yl]-3,6-dihydro-2H-pyridin-1-yl]butan-1-one], the Ki came out at 0.65 nM.
Take `O=C(CCC(F)(F)F)N1CC=C(c2cccn3nc(Nc4ccc(C(=O)N5CCCC5Cc5ccccn5)cc4)nc23)CC1` (centres unmarked) [Example 2-396, 4,4,4-trifluoro-1-[4-[2-[4-[2-(2-pyridylmethyl)pyrrolidine-1-carbonyl]anilino]-[1,2,4]triazolo[1,5-a]pyridin-8-yl]-3,6-dihydro-2H-pyridin-1-yl]butan-1-one]: the Ki turned out to be 0.97 nM.
Regarding `O=C(CCC(F)(F)F)N1CC=C(c2cccn3nc(Nc4ccc(C(=O)N5CCN(c6ccccn6)CC5)cc4)nc23)CC1` [Example 2-397, 4,4,4-trifluoro-1-[4-[2-[4-[4-(2-pyridyl)piperazine-1-carbonyl]anilino]-[1,2,4]triazolo[1,5-a]pyridin-8-yl]-3,6-dihydro-2H-pyridin-1-yl]butan-1-one], the Ki amounted to 1.18 nM.
The same measure for `O=C(CCC(F)(F)F)N1CC=C(c2cccn3nc(Nc4ccc(C(=O)N5CCN(CC6CC6)CC5)cc4)nc23)CC1` [Example 2-398, 1-[4-[2-[4-[4-(cyclopropylmethyl)piperazine-1-carbonyl]anilino]-[1,2,4]triazolo[1,5-a]pyridin-8-yl]-3,6-dihydro-2H-pyridin-1-yl]-4,4,4-trifluoro-butan-1-one]: 2.39 nM.
Turning to `CC(CN(C)C)NC(=O)c1ccc(Nc2nc3c(C4=CCN(C(=O)CCC(F)(F)F)CC4)cccn3n2)cc1` (centres unmarked) [Example 2-399, N-[2-(dimethylamino)-1-methyl-ethyl]-4-[[8-[1-(4,4,4-trifluorobutanoyl)-3,6-dihydro-2H-pyridin-4-yl]-[1,2,4]triazolo[1,5-a]pyridin-2-yl]amino]benzamide], the Ki stood at 1.28 nM.
Consider `CCCN1CCC(N(C(=O)c2ccc(Nc3nc4c(C5=CCN(C(=O)CCC(F)(F)F)CC5)cccn4n3)cc2)C2CC2)CC1` [Example 2-400, N-cyclopropyl-N-(1-propyl-4-piperidyl)-4-[[8-[1-(4,4,4-trifluorobutanoyl)-3,6-dihydro-2H-pyridin-4-yl]-[1,2,4]triazolo[1,5-a]pyridin-2-yl]amino]benzamide], for which the inhibition constant Ki was 1.35 nM.
`Cc1cccc(C(C)NC(=O)c2ccc(Nc3nc4c(C5=CCN(C(=O)CCC(F)(F)F)CC5)cccn4n3)cc2)n1` (centres unmarked) [Example 2-401, N-[1-(6-methyl-2-pyridyl)ethyl]-4-[[8-[1-(4,4,4-trifluorobutanoyl)-3,6-dihydro-2H-pyridin-4-yl]-[1,2,4]triazolo[1,5-a]pyridin-2-yl]amino]benzamide]: the Ki came out at 0.58 nM.
The same measure for `CN(Cc1cccnc1)C(=O)c1ccc(Nc2nc3c(C4=CCN(C(=O)CCC(F)(F)F)CC4)cccn3n2)cc1` [Example 2-402, N-methyl-N-(3-pyridylmethyl)-4-[[8-[1-(4,4,4-trifluorobutanoyl)-3,6-dihydro-2H-pyridin-4-yl]-[1,2,4]triazolo[1,5-a]pyridin-2-yl]amino]benzamide]: 0.6 nM.
As for `O=C(CCC(F)(F)F)N1CC=C(c2cccn3nc(Nc4ccc(C(=O)N5CCCC(N6CCCCCC6)C5)cc4)nc23)CC1` (centres unmarked) [Example 2-403, 1-[4-[2-[4-[3-(azepan-1-yl)piperidine-1-carbonyl]anilino]-[1,2,4]triazolo[1,5-a]pyridin-8-yl]-3,6-dihydro-2H-pyridin-1-yl]-4,4,4-trifluoro-butan-1-one], the Ki turned out to be 0.85 nM.
Consider `O=C(CCC(F)(F)F)N1CC=C(c2cccn3nc(Nc4ccc(C(=O)N5CCC(Cc6ccccn6)CC5)cc4)nc23)CC1` [Example 2-404, 4,4,4-trifluoro-1-[4-[2-[4-[4-(2-pyridylmethyl)piperidine-1-carbonyl]anilino]-[1,2,4]triazolo[1,5-a]pyridin-8-yl]-3,6-dihydro-2H-pyridin-1-yl]butan-1-one], for which the Ki was 0.6 nM.
For `CN(Cc1ccc(N(C)C)cc1)C(=O)c1ccc(Nc2nc3c(C4=CCN(C(=O)CCC(F)(F)F)CC4)cccn3n2)cc1` [Example 2-406, N-[[4-(dimethylamino)phenyl]-methyl]-N-methyl-4-[[8-[1-(4,4,4-trifluorobutanoyl)-3,6-dihydro-2H-pyridin-4-yl]-[1,2,4]triazolo[1,5-a]pyridin-2-yl]amino]benzamide], the Ki turned out to be 1.12 nM.
As for `CN(Cc1ccncc1)C(=O)c1ccc(Nc2nc3c(C4=CCN(C(=O)CCC(F)(F)F)CC4)cccn3n2)cc1` [Example 2-407, N-methyl-N-(4-pyridylmethyl)-4-[[8-[1-(4,4,4-trifluorobutanoyl)-3,6-dihydro-2H-pyridin-4-yl]-[1,2,4]triazolo[1,5-a]pyridin-2-yl]amino]benzamide], the Ki turned out to be 0.63 nM.
The same measure for `CN1CCC(N(C)C(=O)c2ccc(Nc3nc4c(C5=CCN(C(=O)C6CC6)CC5)cccn4n3)cc2)CC1` [Example 2-409, 4-[[8-[1-(cyclopropanecarbonyl)-3,6-dihydro-2H-pyridin-4-yl]-[1,2,4]triazolo[1,5-a]pyridin-2-yl]amino]-N-methyl-N-(1-methyl-4-piperidyl)benzamide]: 4 nM; for `COCCC(=O)N1CC=C(c2cccn3nc(Nc4ccc(C(=O)N(C)C5CCN(C)CC5)cc4)nc23)CC1` [Example 2-411, 4-[[8-[1-(3-methoxypropanoyl)-3,6-dihydro-2H-pyridin-4-yl]-[1,2,4]triazolo[1,5-a]pyridin-2-yl]amino]-N-methyl-N-(1-methyl-4-piperidyl)benzamide]: 6.67 nM; for `CC(C)CCC(=O)N1CC=C(c2cccn3nc(Nc4ccc(C(=O)N(C)C5CCN(C)CC5)cc4)nc23)CC1` [Example 2-412, N-methyl-4-[[8-[1-(4-methylpentanoyl)-3,6-dihydro-2H-pyridin-4-yl]-[1,2,4]triazolo[1,5-a]pyridin-2-yl]amino]-N-(1-methyl-4-piperidyl)benzamide]: 4.35 nM.
The same measure for `CN1CCC(N(C)C(=O)c2ccc(Nc3nc4c(C5=CCN(C(=O)N6CCOCC6)CC5)cccn4n3)cc2)CC1` [Example 2-413, N-methyl-N-(1-methyl-4-piperidyl)-4-[[8-[1-(morpholine-4-carbonyl)-3,6-dihydro-2H-pyridin-4-yl]-[1,2,4]triazolo[1,5-a]pyridin-2-yl]amino]benzamide]: 19.6 nM; for `CCOC(=O)N1CC=C(c2cccn3nc(Nc4ccc(C(=O)N5CCC(N(C)C)C5)cc4)nc23)CC1` (centres unmarked) [Example 2-414, ethyl 4-[2-[4-[3-(dimethylamino)pyrrolidine-1-carbonyl]anilino]-[1,2,4]triazolo[1,5-a]pyridin-8-yl]-3,6-dihydro-2H-pyridine-1-carboxylate]: 3.2 nM; for `CCOC(=O)N1CC=C(c2cccn3nc(Nc4ccc(C(=O)NCC5CCCCN5C)cc4)nc23)CC1` (centres unmarked) [Example 2-415, ethyl 4-[2-[4-[(1-methyl-2-piperidyl)methylcarbamoyl]anilino]-[1,2,4]triazolo[1,5-a]pyridin-8-yl]-3,6-dihydro-2H-pyridine-1-carboxylate]: 1.71 nM.
For `CCOC(=O)N1CC=C(c2cccn3nc(Nc4ccc(C(=O)NCCC5CCCNC5)cc4)nc23)CC1` (centres unmarked) [Example 2-416, ethyl 4-[2-[4-[2-(3-piperidyl)ethylcarbamoyl]anilino]-[1,2,4]triazolo[1,5-a]pyridin-8-yl]-3,6-dihydro-2H-pyridine-1-carboxylate], the Ki came out at 1.64 nM.
Then `CCOC(=O)N1CC=C(c2cccn3nc(Nc4ccc(C(=O)N5CCN6CCCC6C5)cc4)nc23)CC1` (centres unmarked) [Example 2-418, ethyl 4-[2-[4-(3,4,6,7,8,8a-hexahydro-1H-pyrrolo[1,2-a]pyrazine-2-carbonyl)anilino]-[1,2,4]triazolo[1,5-a]pyridin-8-yl]-3,6-dihydro-2H-pyridine-1-carboxylate], with 3.29 nM.
Consider `CCOC(=O)N1CC=C(c2cccn3nc(Nc4ccc(C(=O)N(C)Cc5ccccn5)cc4)nc23)CC1` [Example 2-419, ethyl 4-[2-[4-[methyl(2-pyridylmethyl)carbamoyl]anilino]-[1,2,4]triazolo[1,5-a]pyridin-8-yl]-3,6-dihydro-2H-pyridine-1-carboxylate], for which the Ki is 5.1 nM.
As for `CCOC(=O)N1CC=C(c2cccn3nc(Nc4ccc(C(=O)N5CC[C@H](N(C)C)C5)cc4)nc23)CC1` [Example 2-420, ethyl 4-[2-[4-[(3S)-3-(dimethylamino)pyrrolidine-1-carbonyl]anilino]-[1,2,4]triazolo[1,5-a]pyridin-8-yl]-3,6-dihydro-2H-pyridine-1-carboxylate], the Ki is 2.89 nM.
`CCOC(=O)N1CC=C(c2cccn3nc(Nc4ccc(C(=O)N5CC(C(=O)N6CCN(C)CC6)C5)cc4)nc23)CC1` [Example 2-421, ethyl 4-[2-[4-[3-(4-methylpiperazine-1-carbonyl)azetidine-1-carbonyl]anilino]-[1,2,4]triazolo[1,5-a]pyridin-8-yl]-3,6-dihydro-2H-pyridine-1-carboxylate]: the Ki is 1.31 nM.
For `CCOC(=O)N1CC=C(c2cccn3nc(Nc4ccc(C(=O)NCCc5cccnc5)cc4)nc23)CC1` [Example 2-422, ethyl 4-[2-[4-[2-(3-pyridyl)ethylcarbamoyl]anilino]-[1,2,4]triazolo[1,5-a]pyridin-8-yl]-3,6-dihydro-2H-pyridine-1-carboxylate], the Ki came out at 1.8 nM.
Turning to `CCOC(=O)N1CC=C(c2cccn3nc(Nc4ccc(C(=O)NCCc5ccccn5)cc4)nc23)CC1` [Example 2-423, ethyl 4-[2-[4-[2-(2-pyridyl)ethylcarbamoyl]anilino]-[1,2,4]triazolo[1,5-a]pyridin-8-yl]-3,6-dihydro-2H-pyridine-1-carboxylate], the inhibition constant (Ki) was 1.9 nM.
